43 molecules from publication PMC4336329 (PLoS ONE, 2015) can be followed below.

Each structure is given as a SMILES string. About 14,000 (4.5%) of roughly 310,000 compounds showed an effect of 50% or more. Effects have a minus sign here. The list shows a part of the results.
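Note: peak tail current of the secondary pulse compared with the same well before compound.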

In the assay the target is human ether-à-go-go-related gene (hERG) potassium channel (human, UniProt Q12809). Put plainly: primary screen, population patch clamp on CHO cells stably expressing hERG.
human ether-à-go-go-related gene (hERG) potassium channel, sequence (Q12809 whole entry, looked up): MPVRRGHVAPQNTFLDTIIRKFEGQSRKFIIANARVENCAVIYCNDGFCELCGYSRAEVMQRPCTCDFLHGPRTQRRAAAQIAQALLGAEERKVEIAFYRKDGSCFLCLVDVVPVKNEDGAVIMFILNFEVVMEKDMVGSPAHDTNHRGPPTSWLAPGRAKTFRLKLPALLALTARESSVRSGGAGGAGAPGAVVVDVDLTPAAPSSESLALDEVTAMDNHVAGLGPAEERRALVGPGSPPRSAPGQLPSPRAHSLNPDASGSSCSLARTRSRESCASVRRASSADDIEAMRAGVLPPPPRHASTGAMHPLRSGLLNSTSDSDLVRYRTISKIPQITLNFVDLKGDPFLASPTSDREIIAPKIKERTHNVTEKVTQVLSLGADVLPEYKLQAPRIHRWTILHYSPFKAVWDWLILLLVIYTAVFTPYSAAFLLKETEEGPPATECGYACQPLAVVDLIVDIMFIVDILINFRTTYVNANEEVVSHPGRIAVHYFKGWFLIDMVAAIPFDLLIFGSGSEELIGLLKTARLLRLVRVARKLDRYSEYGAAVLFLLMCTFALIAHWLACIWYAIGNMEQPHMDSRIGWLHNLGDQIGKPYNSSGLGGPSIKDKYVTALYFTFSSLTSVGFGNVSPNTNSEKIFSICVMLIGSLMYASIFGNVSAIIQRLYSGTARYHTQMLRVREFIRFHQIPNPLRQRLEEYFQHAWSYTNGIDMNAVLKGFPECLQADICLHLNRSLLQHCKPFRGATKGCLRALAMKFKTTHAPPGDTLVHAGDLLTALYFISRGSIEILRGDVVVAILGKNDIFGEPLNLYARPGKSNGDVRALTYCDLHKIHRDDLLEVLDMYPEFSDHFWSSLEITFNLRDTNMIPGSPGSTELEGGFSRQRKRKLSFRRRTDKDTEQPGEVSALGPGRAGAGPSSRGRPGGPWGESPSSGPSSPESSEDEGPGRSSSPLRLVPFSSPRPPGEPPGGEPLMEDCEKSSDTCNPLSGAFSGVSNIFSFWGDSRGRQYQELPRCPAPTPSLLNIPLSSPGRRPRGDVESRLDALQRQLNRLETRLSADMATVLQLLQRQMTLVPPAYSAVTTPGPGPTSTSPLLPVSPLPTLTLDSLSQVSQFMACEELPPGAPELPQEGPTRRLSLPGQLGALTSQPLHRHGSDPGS
For the molecule `COc1ccc(CNC(=O)C(C)n2ccc3cc(S(=O)(=O)N4CCCCCC4)ccc32)cc1` (stereo not shown), the “hERG current change (%, negative = inhibition) at 10uM” value stood at 1.82%.
Regarding `CCOC(=O)c1c(C)c(C(=O)Nc2cc(F)ccc2F)c(C)n1C`, the “hERG current change (%, negative = inhibition) at 10uM” value worked out at 13.9%.
Take `Cc1onc(-c2ccccc2)c1NC(=O)N(CCC#N)Cc1cccs1`: the “hERG current change (%, negative = inhibition) at 10uM” value worked out at 7.93%.
To `CCn1c(SCC(=O)Nc2ccccc2Cl)nnc1C1CC1` belongs 6.78%; to `CCN(CC)S(=O)(=O)c1cc(C(=O)NC2=NCCS2)ccc1Cl`, 4.64%; to `CC(C)c1nc(C#N)c(NN)o1`, 14.7%.
In the case of `COc1ccccc1NC(=O)c1ccc(CSc2ccccc2)o1`, the “hERG current change (%, negative = inhibition) at 10uM” value is -8.57%.
To `COc1cccc(OCc2cc(C(=O)N3CCC(c4ccncc4)CC3)no2)c1` belongs -40.9%; to `Cc1cc(C)nc(SCc2nnc(SCC(N)=O)o2)n1`, 15.7%; to `CCCCCC(=O)N/N=C/c1cc(Br)c(O)c(OC)c1`, -1.34%.
To `NC(=O)C1CCN(C(=O)Cc2ccsc2)CC1` belongs -1.15%.
As for `COc1ccc(NC2=Nc3ccccc3N3C2=Nc2c(c(C)nn2-c2ccc(C)cc2)C3c2cccnc2)cc1` (stereo not shown), the “hERG current change (%, negative = inhibition) at 10uM” value is recorded as 12.3%.
As to `Cc1ccc(NC(=O)c2nc[nH]c2C(=O)N[C@H](C)c2ccccc2)cc1`, the “hERG current change (%, negative = inhibition) at 10uM” value was 21.4%.
To `COC(=O)c1ccc(/C=N/NC(=O)C2CC(=O)N(c3ccc(F)cc3)C2)cc1` (stereo not shown) belongs 3.98%; to `COc1ccccc1CCC(=O)Oc1ccc(C#N)cc1OC`, -3.46%; to `CCN1CCN(Cc2nc3c(c(=O)n(C)c(=O)n3C)n2C(C)C(C)=O)CC1` (stereo not shown), 12.1%.
Take `CC(OC(=O)c1ccccc1OCc1ccc(Cl)cc1)C(N)=O` (stereo not shown): the “hERG current change (%, negative = inhibition) at 10uM” value was 14.3%.
In the case of `Cc1ccc(C(=O)N(CCCN(C)C)c2nc3ccc(Cl)cc3s2)cc1C.Cl`, the “hERG current change (%, negative = inhibition) at 10uM” value is recorded as -56.4%.
For the molecule `Cc1ccc(C2CC(c3ccccc3OC(F)F)Nc3ncnn32)cc1` (stereo not shown), the “hERG current change (%, negative = inhibition) at 10uM” value is -22.5%.
As for `COc1ccc(/C=N/NC(=O)c2ccc(C)cc2)cc1CN1CCN(c2ccc(F)cc2)CC1`, the “hERG current change (%, negative = inhibition) at 10uM” value was -69.8%.
With `CCNC(=O)c1ccc(CSc2ccc(Cl)cc2)cc1`, the “hERG current change (%, negative = inhibition) at 10uM” value is listed as -3.08%.
Turning to `Cc1ccc(C(O)P(=O)(OC2CCCCC2)OC2CCCCC2)cc1` (stereo not shown), the “hERG current change (%, negative = inhibition) at 10uM” value is given as -0.47%.
Next, `C/C(=N\NC(=O)CSCc1ccc(Cl)cc1)c1ccc2c(c1)OCCO2`: -0.841%; `CCn1c(=O)cc(SCC(=O)NCC2CCCO2)c2ccccc21` (stereo not shown): -6.43%.
To `O=C(COc1ccccc1Cl)Nc1ccc(S(=O)(=O)Nc2ccccn2)cc1` belongs 13%; to `O=C(O)c1n[nH]nc1-c1ccccc1`, 17.4%.
`CCOc1ccc(NC(=O)Nc2cccs2)cc1`: the “hERG current change (%, negative = inhibition) at 10uM” value is on record as 14.5%.
Next, `NS(=O)(=O)c1ccc(CCNC(=O)c2ccccc2Cc2ccccc2)cc1`: -31.6%.
Next, `COc1cc(C)cc(CN2CCC(Cc3ccccc3)CC2)c1O`: -52.2%; `O=C(COC(=O)c1cccs1)c1ccc2ccccc2c1`: -6.69%.
With `CC1=CC2=NC(=O)CC(C)(C(=O)N(CC(=O)NC(C)(C)C)Cc3cccs3)N2C=C1` (stereo not shown), the “hERG current change (%, negative = inhibition) at 10uM” value is on record as -17.1%.
Next, `Cc1ccc(NC(=S)N(CCN(C)C)Cc2cc3cc(C)ccc3[nH]c2=O)cc1`: -43.5%; `O=C(CNC(=O)Cc1ccc(Cl)cc1)NCc1ccco1`: 11.3%.
Consider `Cc1cccc2cc(CN(CC3CCCO3)C(=O)c3ccco3)c3nnnn3c12` (stereo not shown), for which the “hERG current change (%, negative = inhibition) at 10uM” value came to 3.95%.
To `O=C(N/N=C\c1ccccn1)c1cccc(C(=O)N/N=C\c2ccccn2)n1` belongs 5.53%.
Regarding `CC1CCN(C(=O)c2cc3nc(-c4ccccc4)cc(-c4ccccc4)n3n2)CC1`, the “hERG current change (%, negative = inhibition) at 10uM” value is recorded as -7.21%.
With `COc1ccc(-c2nc(CN3CCC(C(=O)NC4CCCC4)CC3)c(C)o2)cc1OC`, the “hERG current change (%, negative = inhibition) at 10uM” value is -36.4%.
Consider `CCCCn1c(=O)[nH]c(=O)c2c1nc(-c1ccc(-c3ccccc3Br)o1)n2CC`, for which the “hERG current change (%, negative = inhibition) at 10uM” value is given as 14.7%.
For the molecule `Cc1ccc(CS(=O)(=O)Cc2ccc(C(=O)N3CCC4(CC3)OCCO4)o2)cc1`, the “hERG current change (%, negative = inhibition) at 10uM” value is listed as -8.39%.
On to `COc1ccc(CCNC(=O)C(=O)NCC2OCCN2S(=O)(=O)c2ccc(Cl)cc2)cc1OC` (stereo not shown), for which the “hERG current change (%, negative = inhibition) at 10uM” value is reported as -24.1%.
With `CCn1cc(NC(=O)Nc2ccc(OC)c(OC)c2)c(C(N)=O)n1`, the “hERG current change (%, negative = inhibition) at 10uM” value was -4.98%.
Consider `CNC(=O)c1c(C)nn(-c2ccc(F)c(Cl)c2)c1-c1cc(C)on1`, for which the “hERG current change (%, negative = inhibition) at 10uM” value was 4.71%.
Take `COc1ccc(OC)c(NC(=O)C2CCN(c3ncccn3)CC2)c1`: the “hERG current change (%, negative = inhibition) at 10uM” value is listed as -0.133%.
